Assay [1] concerns the target T1, endogenous MEILB2 (mouse testis) (mouse (endogenous in testis)) (UniProt Q9D4G2).
T1 sequence: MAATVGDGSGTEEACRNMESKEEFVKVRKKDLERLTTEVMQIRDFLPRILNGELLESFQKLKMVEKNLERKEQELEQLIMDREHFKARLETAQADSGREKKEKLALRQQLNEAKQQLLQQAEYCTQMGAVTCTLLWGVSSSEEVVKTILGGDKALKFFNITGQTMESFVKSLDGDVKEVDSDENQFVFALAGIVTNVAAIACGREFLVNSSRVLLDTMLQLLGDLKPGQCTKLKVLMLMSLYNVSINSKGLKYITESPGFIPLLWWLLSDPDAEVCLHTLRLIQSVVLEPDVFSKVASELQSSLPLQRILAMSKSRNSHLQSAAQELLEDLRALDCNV
As to the kind of experiment: co-IP; mouse testis extract; anti-MEILB2 antibody or control IgG on Dynabeads protein A, 6 h at 4 °C; wash with high-salt buffer (400 mM KCl); elution with 0.1 M glycine pH 2.5; immunoblot. (Immunoblotting shows a protein as a band on a membrane.)

Amino acid sequences for entries named in this document (tags omitted).
UniProt Q08297: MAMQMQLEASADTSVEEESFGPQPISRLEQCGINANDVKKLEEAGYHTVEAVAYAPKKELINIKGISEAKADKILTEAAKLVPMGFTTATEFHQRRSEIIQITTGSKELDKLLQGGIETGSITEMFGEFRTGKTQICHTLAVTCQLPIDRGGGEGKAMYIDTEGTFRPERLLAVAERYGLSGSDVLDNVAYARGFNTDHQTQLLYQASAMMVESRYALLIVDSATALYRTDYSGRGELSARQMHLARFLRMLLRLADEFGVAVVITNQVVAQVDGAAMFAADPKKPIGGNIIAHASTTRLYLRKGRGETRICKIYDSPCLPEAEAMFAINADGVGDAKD

For assay [2], the target named is T2, GFP-BRCA2-M (a.a. 982–2035) (mouse) (UniProt P97929).
T2 sequence: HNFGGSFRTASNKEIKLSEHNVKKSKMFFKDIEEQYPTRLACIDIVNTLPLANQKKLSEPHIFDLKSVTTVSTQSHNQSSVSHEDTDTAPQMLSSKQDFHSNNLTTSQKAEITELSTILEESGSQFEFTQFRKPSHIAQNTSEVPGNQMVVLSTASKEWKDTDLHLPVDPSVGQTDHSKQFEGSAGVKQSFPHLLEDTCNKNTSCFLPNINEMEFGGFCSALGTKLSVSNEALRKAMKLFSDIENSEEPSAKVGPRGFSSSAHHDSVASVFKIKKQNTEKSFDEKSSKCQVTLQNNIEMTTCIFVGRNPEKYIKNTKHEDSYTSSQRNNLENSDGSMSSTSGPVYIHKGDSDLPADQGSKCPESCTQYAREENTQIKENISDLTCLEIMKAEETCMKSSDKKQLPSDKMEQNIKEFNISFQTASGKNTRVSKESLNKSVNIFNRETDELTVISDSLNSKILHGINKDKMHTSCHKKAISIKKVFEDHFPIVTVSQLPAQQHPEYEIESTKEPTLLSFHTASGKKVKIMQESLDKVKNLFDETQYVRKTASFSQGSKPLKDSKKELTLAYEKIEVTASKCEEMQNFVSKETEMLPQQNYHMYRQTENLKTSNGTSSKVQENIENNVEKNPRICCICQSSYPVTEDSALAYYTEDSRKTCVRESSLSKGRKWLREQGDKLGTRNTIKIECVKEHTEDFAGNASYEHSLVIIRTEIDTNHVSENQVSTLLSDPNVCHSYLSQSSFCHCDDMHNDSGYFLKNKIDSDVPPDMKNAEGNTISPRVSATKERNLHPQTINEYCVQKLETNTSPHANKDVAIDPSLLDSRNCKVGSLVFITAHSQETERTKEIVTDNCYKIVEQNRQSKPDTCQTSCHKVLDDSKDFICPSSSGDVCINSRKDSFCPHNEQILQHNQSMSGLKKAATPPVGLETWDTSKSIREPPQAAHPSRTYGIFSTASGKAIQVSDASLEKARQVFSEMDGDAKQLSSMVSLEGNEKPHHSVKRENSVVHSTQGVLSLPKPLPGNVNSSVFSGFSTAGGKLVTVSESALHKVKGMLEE
As to the kind of experiment: co-IP; B16-F1 cells co-expressing GFP-BRCA2 truncations and MEILB2-MYC; extract on GFP-trap_MA beads 2 h at 4 °C; wash with high-salt buffer (400 mM KCl); immunoblot ('GFP pull-down assay').

For assay [3], the target named is T1, endogenous MEILB2 (mouse testis) (mouse (endogenous in testis)). As to the kind of experiment: co-IP; mouse testis extract; anti-MEILB2 antibody or control IgG on Dynabeads protein A, 6 h at 4 °C; wash with high-salt buffer (400 mM KCl); elution with 0.1 M glycine pH 2.5; immunoblot. The source holds these as a separate data set.
The target of assay [4] is T3, LexA-Meilb2 (MEILB2/HSF2BP, bait of the yeast two-hybrid screening) (mouse) (UniProt Q9D4G2).
T3 sequence: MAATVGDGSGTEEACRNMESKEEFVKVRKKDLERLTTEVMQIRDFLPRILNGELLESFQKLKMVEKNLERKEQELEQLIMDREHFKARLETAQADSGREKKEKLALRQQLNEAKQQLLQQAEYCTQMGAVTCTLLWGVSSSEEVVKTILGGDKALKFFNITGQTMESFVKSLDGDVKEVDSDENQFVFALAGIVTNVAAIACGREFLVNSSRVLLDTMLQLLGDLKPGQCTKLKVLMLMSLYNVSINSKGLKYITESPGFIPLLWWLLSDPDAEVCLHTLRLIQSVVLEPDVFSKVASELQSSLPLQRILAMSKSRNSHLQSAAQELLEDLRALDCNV
As to the kind of experiment: two-hybrid; Hybrigenics screening: LexA-Meilb2 bait (pB27) against a random-primed mouse testis cDNA library in pP6; mating of YHGX13 and L40ΔGal4 strains; selection without tryptophan, leucine and histidine, with 50 mM 3-aminotriazole.

The target of assay [5] is T4, BRCA2-C (a.a. 2036–3329), bait (pGBKT7) of the yeast two-hybrid assay (mouse) (UniProt P97929).
T4 sequence: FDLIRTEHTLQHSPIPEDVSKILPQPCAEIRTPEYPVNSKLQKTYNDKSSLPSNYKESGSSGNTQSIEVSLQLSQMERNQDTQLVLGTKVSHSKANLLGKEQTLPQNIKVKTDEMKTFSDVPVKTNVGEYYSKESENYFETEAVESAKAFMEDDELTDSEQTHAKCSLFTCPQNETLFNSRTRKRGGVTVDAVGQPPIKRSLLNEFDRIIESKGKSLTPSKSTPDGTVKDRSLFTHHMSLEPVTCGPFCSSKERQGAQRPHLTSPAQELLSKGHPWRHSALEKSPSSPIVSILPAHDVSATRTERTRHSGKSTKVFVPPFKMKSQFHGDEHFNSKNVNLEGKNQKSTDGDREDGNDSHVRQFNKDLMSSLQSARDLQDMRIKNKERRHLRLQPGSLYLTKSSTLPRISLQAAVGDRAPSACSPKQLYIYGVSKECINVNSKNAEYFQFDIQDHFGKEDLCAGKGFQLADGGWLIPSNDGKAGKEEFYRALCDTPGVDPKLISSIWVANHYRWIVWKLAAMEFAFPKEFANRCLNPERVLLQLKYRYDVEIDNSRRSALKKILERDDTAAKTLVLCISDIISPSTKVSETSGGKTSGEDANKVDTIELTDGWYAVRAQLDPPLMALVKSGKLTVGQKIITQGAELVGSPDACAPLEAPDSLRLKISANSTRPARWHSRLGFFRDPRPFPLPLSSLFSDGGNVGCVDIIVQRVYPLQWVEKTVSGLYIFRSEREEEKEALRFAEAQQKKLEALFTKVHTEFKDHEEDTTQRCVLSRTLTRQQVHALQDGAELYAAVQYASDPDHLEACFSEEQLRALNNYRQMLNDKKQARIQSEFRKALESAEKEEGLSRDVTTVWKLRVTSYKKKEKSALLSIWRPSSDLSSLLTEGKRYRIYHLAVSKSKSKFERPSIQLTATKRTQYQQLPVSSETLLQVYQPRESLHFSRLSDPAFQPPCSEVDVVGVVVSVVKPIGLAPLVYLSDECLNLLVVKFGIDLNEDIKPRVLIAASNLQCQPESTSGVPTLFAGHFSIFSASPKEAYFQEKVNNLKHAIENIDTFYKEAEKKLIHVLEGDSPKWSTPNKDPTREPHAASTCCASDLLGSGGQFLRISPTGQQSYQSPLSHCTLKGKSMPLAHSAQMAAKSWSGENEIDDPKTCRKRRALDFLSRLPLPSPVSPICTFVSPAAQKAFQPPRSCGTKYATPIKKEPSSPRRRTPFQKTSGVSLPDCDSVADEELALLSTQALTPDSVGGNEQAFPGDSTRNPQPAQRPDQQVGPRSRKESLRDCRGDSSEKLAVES
As to the kind of experiment: two-hybrid; baits in pGBKT7 and MEILB2 prey in pGADT7 co-transformed into yeast AH109; selection on SD-tryptophan-leucine-histidine-adenine plates.

Assay [6] concerns the target T5, BRCA2-MBD (a.a. 2117–2339), bait (pGBKT7) of the yeast two-hybrid assay (mouse) (UniProt P97929).
T5 sequence: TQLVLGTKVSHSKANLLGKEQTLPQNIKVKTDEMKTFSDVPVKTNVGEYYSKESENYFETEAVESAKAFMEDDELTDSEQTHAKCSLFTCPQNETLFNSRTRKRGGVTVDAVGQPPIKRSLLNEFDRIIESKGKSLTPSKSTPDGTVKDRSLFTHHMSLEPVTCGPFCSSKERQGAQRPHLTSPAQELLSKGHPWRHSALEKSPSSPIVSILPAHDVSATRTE
The description is as above.

Like-named read-outs stand apart in the source and are kept apart here. These are yes or no findings as the source states them, for the method shown. For part of these data: Binding seen in cells or lysates may run through a third protein. Some entries that bind do so weakly or less than the wild type. For part of these data: Where a sequence is shown, tags or fusion partners need not be part of it.

Turning to “endogenous BRCA2 (mouse testis) (from UniProt P97929 1-3329)”, in assay [1], the binding result is reported as “binds”.

In the case of “endogenous RAD51 (B16-F1 cells) (from UniProt Q08297 1-339)”, the binding entry in assay [2] was “binds”.

B1: endogenous SPATA22 (mouse testis) (protein, UniProt Q5SV06 1-358)
chain: MKRNLNESSARSTAGCLPVPLFNQKKRNRQPLTSNPLQNDPGVSTVSDSYGSPSFPTDWAWEAVNPEVAPLKKTVNTGQIPASASYPWRSQDSVSKSIQSNAERSQSAWGYRGNNRNTSLRTWDFRPQHKTVSPAANSEFSSCPVNLGAQQQKQFQTPEFPNLPGHKEAEVPRQTCLSKLPGSTMKGPDRASALQAFKPSFQQNPFKKTVLGDIPRENSLKEGTLHQLKEKDNSLRIISAVIESMKYWRAHVQKTVLLFEILAVLDSAVTSGPHYSKTFLMRDGKNILPCVFYEIDRELPRLIRGRVHRCVGHYDPDKNIFKCVSVRPASASEQKTFQAFVTIADAEMKYHTKVTNEM
For the molecule B1, the binding result in assay [3] is on record as “binds”.

B2: BRCA2 peptide a.a. 1933–2385 (prey clone of the yeast two-hybrid screening) (domain or fragment, UniProt P97929 1933-2385)
chain: TASGKAIQVSDASLEKARQVFSEMDGDAKQLSSMVSLEGNEKPHHSVKRENSVVHSTQGVLSLPKPLPGNVNSSVFSGFSTAGGKLVTVSESALHKVKGMLEEFDLIRTEHTLQHSPIPEDVSKILPQPCAEIRTPEYPVNSKLQKTYNDKSSLPSNYKESGSSGNTQSIEVSLQLSQMERNQDTQLVLGTKVSHSKANLLGKEQTLPQNIKVKTDEMKTFSDVPVKTNVGEYYSKESENYFETEAVESAKAFMEDDELTDSEQTHAKCSLFTCPQNETLFNSRTRKRGGVTVDAVGQPPIKRSLLNEFDRIIESKGKSLTPSKSTPDGTVKDRSLFTHHMSLEPVTCGPFCSSKERQGAQRPHLTSPAQELLSKGHPWRHSALEKSPSSPIVSILPAHDVSATRTERTRHSGKSTKVFVPPFKMKSQFHGDEHFNSKNVNLEGKNQKSTDGD
With B2, the binding entry in assay [4] is reported as “binds”.

B3: BRCA2 peptide a.a. 2028–2339 (prey clone of the yeast two-hybrid screening) (domain or fragment, UniProt P97929 2028-2339)
chain: KVKGMLEEFDLIRTEHTLQHSPIPEDVSKILPQPCAEIRTPEYPVNSKLQKTYNDKSSLPSNYKESGSSGNTQSIEVSLQLSQMERNQDTQLVLGTKVSHSKANLLGKEQTLPQNIKVKTDEMKTFSDVPVKTNVGEYYSKESENYFETEAVESAKAFMEDDELTDSEQTHAKCSLFTCPQNETLFNSRTRKRGGVTVDAVGQPPIKRSLLNEFDRIIESKGKSLTPSKSTPDGTVKDRSLFTHHMSLEPVTCGPFCSSKERQGAQRPHLTSPAQELLSKGHPWRHSALEKSPSSPIVSILPAHDVSATRTE
In the case of B3, in assay [4], the binding result is “binds”.

B4: MEILB2 (prey, pGADT7) of the yeast two-hybrid assay (protein, UniProt Q9D4G2 1-338)
chain: MAATVGDGSGTEEACRNMESKEEFVKVRKKDLERLTTEVMQIRDFLPRILNGELLESFQKLKMVEKNLERKEQELEQLIMDREHFKARLETAQADSGREKKEKLALRQQLNEAKQQLLQQAEYCTQMGAVTCTLLWGVSSSEEVVKTILGGDKALKFFNITGQTMESFVKSLDGDVKEVDSDENQFVFALAGIVTNVAAIACGREFLVNSSRVLLDTMLQLLGDLKPGQCTKLKVLMLMSLYNVSINSKGLKYITESPGFIPLLWWLLSDPDAEVCLHTLRLIQSVVLEPDVFSKVASELQSSLPLQRILAMSKSRNSHLQSAAQELLEDLRALDCNV
On to B4, for which the binding result in assay [5] and in assay [6] was “binds” each time.

B5: BRCA2 peptide a.a. 2117–2371 (prey clone of the yeast two-hybrid screening) (domain or fragment, UniProt P97929 2117-2371)
chain: TQLVLGTKVSHSKANLLGKEQTLPQNIKVKTDEMKTFSDVPVKTNVGEYYSKESENYFETEAVESAKAFMEDDELTDSEQTHAKCSLFTCPQNETLFNSRTRKRGGVTVDAVGQPPIKRSLLNEFDRIIESKGKSLTPSKSTPDGTVKDRSLFTHHMSLEPVTCGPFCSSKERQGAQRPHLTSPAQELLSKGHPWRHSALEKSPSSPIVSILPAHDVSATRTERTRHSGKSTKVFVPPFKMKSQFHGDEHFNSKN
For B5, the binding entry in assay [4] was “binds”.

B6: endogenous DMC1 (mouse testis) (protein, UniProt Q61880 1-340)
chain: MKEDQVVQEESGFQDDEESLFQDIDLLQKHGINMADIKKLKSVGICTIKGIQMTTRRALCNVKGLSEAKVEKIKEAANKLIEPGFLTAFQYSERRKMVFHITTGSQEFDKLLGGGIESMAITEAFGEFRTGKTQLSHTLCVTAQLPGTGGYSGGKIIFIDTENTFRPDRLRDIADRFNVDHEAVLDNVLYARAYTSEHQMELLDYVAAKFHEEAGIFKLLIIDSIMALFRVDFSGRGELAERQQKLAQMLSRLQKISEEYNVAVFVTNQMTADPGATMTFQADPKKPIGGHILAHASTTRISLRKGRGELRIAKIYDSPEMPENEATFAITAGGIGDAKE
Take B6: the binding entry in assay [3] is “no binding”.

(Values after article PMC6374363.)
